Whole data set: some 4,500 sequences, median “median log2 fold change of GCK-ALFA target abundance (FLAG IP / Myc IP barcode read proportion)” near 0.078, cut for the lowest 2% near -0.6. The list shows a part of the results.
B1: GBRAP_128_3457 (protein)
chain: SVEEVRRWTRETMERIKEADLEEARRLFEELAERLVGLSLEEVEAAVEVIEEMLPELSAEKLDILADVFAEARPRFTPEKAALVAGVASDALLEAEEQEE
B2: GBRAP_150_3915 (protein)
chain: DLETLLTIADTAKDLLEAILDGEEELLPHALKLAEAALEEAKDISEEVKELAEKALKLLKEALKAKKAGAPKEEIQKLAKEALKALEELIKEVEKLIKEK
B3: GBRAP_52_6205 (protein)
chain: MHERMRAHARELVALVKAGDLDAARAYARELARTLNEEELELLGEELVELAKTAAPEDLDAIFKAAEILSDVLEEEGFDEALADGLLNRVAAALYERELK
B4: GBRAP_52_6056 (protein)
chain: MEARIEALARAIAAAIAAGDLDAALALLREAIATLTPEEIRRTLQLAARLVAGLGEEAHERFVELLDEAHELMIEAGISEEEADIIVGDAEAALARAVAA
B5: GBRAP_26_5489 (protein)
chain: FEEEILEELEKKVREILKDEDPTLRAAVIAEAIDLLIEAGEEIEKNAKDEEKIEKAKKEALKELEESLKKFGLSEEKRKKVVEALKEALEKLEKEVKKKA
B6: GBRAP_52_6360 (protein)
chain: ALEAALARLRAALEAMRAGRRDEARAILEEIVATHDEATILAAARALAEELADKDLADAEAFLETALLLADVMDAAGRDPVAADDIEATAARLYAAVAAK
B7: GBRAP_125_2999 (protein)
chain: SREEALAALARVARALGLSDEEVEELVRLAARHGLRQALIAIALAEGAEELAEALERLTEEEVAEVLARAAAALEADPGLTPEEILARLLELARAALAAR
B8: GBRAP_184_5074 (protein)
chain: EVKEETLEVTNVAEAKAKVAALAEKIKDFKGDLVVHLKMPEFDKEIVAAVLDGLGAILKAGYASKVTLGIDAPATEEQVDFVLKRADELGVNVVLPLEEE
B9: GBRAP_83_6932 (protein)
chain: KEEITVAANKDNIKEMFDIAIDLSKEEGYEVNIDVITTKEDIETLIEAFEKLAKAGVNTELLIALEGATEEEAKELKEKLEEIAKKYGVNVKVEVIVVEP
B10: GBRAP_160_4423 (protein)
chain: GELVERVREILEEGLELVVELVEEGERDAALAAARVTAGEVLLEVDEDERVSEEAEEEVDRILDELIAELEANADATPEEVRAMLEEARERILAVLEKHL
B11: GBRAP_95_7066 (protein)
chain: EEDREIAEDLIDTAEDLVEIGLYEQAARAAKAAVEVLKEIGETGELALRAAEVLVKVAEATGDEEAAEAAKEVLERIREAGGDEERIKELEKRLEEAKKK
B12: GBRAP_78_6585 (protein)
chain: ELEELFDKIFAELDAAHALARQLPPDVRNEVLSELTEAASSLLDAEEDGNLEAELQEAIAHLNKALAIARAADHPVAPALAAELEAAKALAEEALKLVKE
B13: GBRAP_74_6535 (protein)
chain: SEELIEKIVAAIKAGKIEEAVKLLREAIENENEEDKVKALLAAAKTVVENADKLSDEDIIKLADALVELRDSVDDELLTDETWKAFAAVLALALAAEQKK
B14: GBRAP_184_5139 (protein)
chain: KVLREAIEAKTVEEAIKKAKEAFEKAKAEGAKLELFVFADGLSVEEIEKLMKEIKKLIEESGLTDAKVTLVVEADEEEADKIIEIADKYGIRVVVALEEE
B15: GBRAP_57_6472 (protein)
chain: SERLKKVEEHAEAALALIEAGAPVEEVLEEVRKMLEELSEETLRDILLIADPEAEYDISKEEAIERLLALVRAYLEAGDLEAVRRLVELIEGQAEMEATE
B16: GBRAP_78_6740 (protein)
chain: ELEELLDKAREHIDKARELIKQLDPETQNELLGLLTDALSDLYLFETEGPNLEYLERAIEHLEKALELLKQIDTPVAKKAAEELEKAIEYLKKAKELLKE
B17: GBRAP_128_3498 (protein)
chain: SMEEAVARTRELMEEIARASPEETRELTRELVALIASVDRETAEAMAEAVEERLPELSAEALDVVADTLRELRPTVDPYTANLLAGIQVEALNRLEELEE
B18: GBRAP_83_6910 (protein)
chain: KEKVAVATTGDHIEEAVDAVIDLTKEEGYEVDLEIITTKEEREKVLEAVERLAKEGIETKVTVLLFGATEEEAEELLKELKEIAKKHGVNIEIEVILIEE
B19: GBRAP_184_5362 (protein)
chain: EVENRSVDVETKEEAEEKLEKERERIRKEKKPTNLYVFLKNASLETVETAAKLLAELKEEGLIKRGIIVLDDEVSEEELDKRVAIADKYGVQLVAALKDE

molecular target: GABARAP, O95166; test: median log2 fold change of GCK-ALFA target abundance (FLAG IP / Myc IP barcode read proportion) (log2 ratio); each designed protein is fused to an ALFA-tag nanobody in HEK293 cells to bring the named protein to FLAG-tagged glucokinase (GCK); Myc marks an untargeted standard; higher = target protein stabilised (more abundant); conditions: target protein: 3xFLAG-MCP-GCK-ALFA reporter; HEK293 landing pad (RPLP)
Summary of the method: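 Binders fused to an ALFA nanobody were recombined as a library into HEK293 landing-pad cells, which were induced with 2 μg mL^−1 doxycycline and then transfected to express a FLAG-tagged target and a Myc-tagged standard. After 48 h, circular RNA barcodes recovered by anti-FLAG and anti-Myc immunoprecipitation of lysates were reverse transcribed, amplified and sequenced. Each binder's target abundance is the median log2 ratio of FLAG to Myc barcode read proportions, from barcodes present at ≥10^−7 in both replicates, binders carrying ≥3 barcodes per replicate, a 10^−6 pseudocount and pooled replicates.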

Sequence of GABARAP, O95166 (O95166 whole entry, the tested form may be a part): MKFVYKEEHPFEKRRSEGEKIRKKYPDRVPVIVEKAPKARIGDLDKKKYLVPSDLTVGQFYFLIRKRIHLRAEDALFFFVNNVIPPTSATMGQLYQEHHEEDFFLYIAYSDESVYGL

Binder	median log2 fold change
B1	0.196
B2	0.111
B3	-0.122
B4	-0.851
B5	0.227
B6	-0.0679
B7	0.148
B8	0.27
B9	0.0347
B10	-0.116
B11	0.142
B12	-0.105
B13	0.0654
B14	0.177
B15	0.235
B16	0.164
B17	0.161
B18	0.197
B19	0.011
